# According to the supplement of paper PMC12217912:
# Some of the results follow. The full chains were built here from the parent and the listed change. Values near 0.05 are background.
# B1: TEV protease; numbered along this chain (parent)
# chain: MGESLFKGPRDYNPISSSICHLTNESDGHTTSLYGIGFGPFIITNKHLFRRNNGTLVVQSLHGVFKVKDTTTLQQHLVDGRDMIIIRMPKDFPPFPQKLKFREPQREERICLVTTNFQTKSMSSMVSDTSCTFPSGDGIFWKHWIQTKDGQCGSPLVSTRDGFIVGIHSASNFTNTNNYFTSVPKNFMELLTNQEAQQWVSGWRLNADSVLWGGHKVFMVKPEEPFQPVKEATQL
# Variants of: B1
# Experiment: raw area under fraction-flipped curve 0-4 h after induction (AUC4h, not background-subtracted), DNA-recorder readout of cleavage of the substrate (dimensionless); higher = more cleavage of the substrate by the protease variant
# Details: temperature: 34 °C; time window: 0-4 h after rhamnose induction
# Procedure: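 In vivo DNA recorder in E. coli TOP10(DE3) ΔrhaA at 34 °C. Each TEVp single-site mutant (parent TEVp 0) is paired with a single-site variant of the 7-mer TEVs (canonical ENLYFQ|S). The substrate sits between flexible linkers in a Bxb1-sfGFP-TEVs-SsrA fusion, so cleavage stabilises Bxb1 and speeds flipping of a recombination array, read by NGS. The value is the raw area under the fraction-flipped curve over 0-4 h after rhamnose induction (AUC4h), with ≥20 reads per time point. It is not background-subtracted; inactive controls average about 0.047.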
# 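Further: Bxb1 expression induced with 0.2% (w/v) L-rhamnose at OD600 near 0.5, cultures sampled hourly, flipped fraction per protease–substrate barcode pair counted by paired-end Illumina sequencing.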
Variant,area with substrate ENAYFQS,area with substrate ENCYFQS,area with substrate ENDYFQS,area with substrate ENEYFQS,area with substrate ENFYFQS,area with substrate ENGYFQS,area with substrate ENHYFQS,area with substrate ENKYFQS,area with substrate ENNYFQS,area with substrate ENQYFQS,area with substrate ENRYFQS,area with substrate ENSYFQS,area with substrate ENTYFQS,area with substrate ENVYFQS,area with substrate ENWYFQS,area with substrate ENIYFQS,area with substrate ENPYFQS,area with substrate ENMYFQS,area with substrate ENYYFQS
N53Q,0.0621,0.0676,0.0683,0.0691,0.0717,0.0551,0.0613,0.0511,0.0587,0.0615,0.0522,0.0801,0.0554,0.0674,0.056,–,–,–,–
G54A,0.0664,0.0614,0.0595,0.0518,0.0622,0.0663,0.0475,0.0655,–,0.0604,–,0.0596,–,–,–,0.0668,–,–,–
G54C,0.0594,0.067,0.0714,0.0619,0.0438,0.053,0.0605,0.0468,0.065,0.0605,0.0686,0.0586,0.0594,–,0.0664,0.0915,0.055,–,–
G54K,0.062,–,0.0571,0.0658,0.0738,0.0504,0.0556,–,–,0.058,0.041,–,–,–,–,0.0565,0.057,–,–
G54M,0.0584,0.0813,–,0.0575,0.049,0.0504,–,–,0.0607,0.0745,0.0511,0.0613,0.0161,0.0574,0.018,0.0882,0.0585,0.0571,–
G54W,0.0551,0.0549,0.0657,0.0579,–,0.0354,0.0508,–,–,0.0591,0.0498,0.0425,0.0492,0.0553,0.0425,0.061,0.06,–,–
T55C,0.0701,0.0761,0.0563,0.0608,0.0618,0.0642,–,–,0.0625,0.0591,0.0539,0.0307,–,0.0806,–,0.105,0.0656,–,0.0702
V57N,0.057,0.0822,0.0583,0.0802,–,–,0.0578,0.0404,–,0.0728,0.0669,0.0404,0.0723,0.0994,–,0.0929,–,0.0596,–
V57S,0.1,0.0437,0.0594,0.0746,0.0611,–,0.0514,–,0.0671,0.0625,0.0597,0.0871,0.0632,–,0.0625,–,0.0517,–,0.0837
V58R,0.0327,–,0.0457,0.0448,0.0384,0.0714,–,0.0625,0.0396,0.0704,–,0.0447,0.0429,–,0.036,0.0569,0.0516,–,–
Q59G,0.0567,0.0362,0.0476,0.0652,0.0385,0.0468,0.0621,0.0585,0.0568,0.0637,0.0174,0.0605,–,0.0788,0.0374,–,–,0.0587,0.0582
S60C,0.0604,0.0578,0.057,0.0601,0.0581,0.0554,0.0581,0.0442,0.0605,0.0517,0.062,0.0631,–,0.0734,–,0.106,0.063,0.0692,0.0443
H62I,0.0505,–,0.0562,0.0256,–,–,0.0559,–,0.0599,0.0547,0.0749,0.0621,0.0677,0.0681,–,0.0971,–,0.0771,–
H62Y,0.0592,–,0.0619,–,–,0.0609,0.0584,–,–,0.0641,0.0549,0.0616,0.0678,0.0491,–,–,0.0594,0.0752,0.0535
G63L,0.0594,0.0521,0.0529,0.0561,0.0637,0.0612,0.0316,–,0.0595,0.054,–,0.0589,0.0594,0.0667,–,0.0862,–,0.0732,0.0813
G63T,0.0528,0.0807,0.0666,0.0757,–,0.0613,0.041,0.0528,0.0554,0.0687,0.0565,–,0.0661,0.0782,0.0626,–,0.0715,0.0772,0.0466
F65N,0.0556,0.0663,–,–,0.0381,0.0571,0.0535,–,–,0.0584,0.0661,0.0601,–,0.0723,–,–,0.0611,–,–
K66D,0.0622,0.0653,0.0592,0.0371,0.0858,0.0651,0.0633,–,–,0.0657,–,0.054,–,–,–,0.0989,0.0558,0.0679,–
K66M,0.0642,0.0747,0.0541,0.0664,0.0402,0.0601,–,–,0.0578,0.0569,–,0.0601,0.071,–,0.0179,–,0.0441,0.0803,0.0533
V67A,0.0704,–,0.0574,0.0417,–,0.0762,0.0549,–,0.0618,0.0488,0.0572,0.0307,0.0612,0.0675,0.001,–,0.06,0.0536,0.0466
V67S,0.0563,–,0.0567,0.0686,0.0348,0.0694,0.0683,0.0802,0.0557,0.056,0.024,0.0443,–,0.0769,0.041,–,–,–,0.0495
V67W,0.0605,0.0559,0.0614,0.0598,0.0892,0.0675,0.0408,0.045,0.0576,0.0691,0.0597,0.0576,0.0571,0.0708,–,–,–,–,–
K68A,0.072,0.0655,–,0.0596,0.0437,0.0659,–,0.0554,0.0754,0.0605,0.049,0.0575,0.0628,–,–,0.113,–,0.0926,0.0734
K68I,0.0612,0.0694,0.0549,0.0605,0.0551,0.0477,0.0561,–,0.0449,0.0492,0.0516,0.0627,0.072,0.0805,0.0399,0.0973,0.0577,–,–
K68Y,0.0622,0.0516,0.0555,0.064,0.06,0.0781,0.0575,0.0616,–,0.0508,–,0.0594,0.0395,0.0716,–,0.107,–,–,–
